Results taken from PubChem BioAssay AID1346428 (National Center for Advancing Translational Sciences (NCATS), 2018).
Screen size: about 48,000 compounds; about 1,200 (2.5%) were called active. Not shown: some 2% with an inconclusive outcome.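 How the source made its calls: active means activation of at least 60% and not above a set upper limit (about 1 call in 100 departs from these limits); inconclusive means activation of 40% to 60%, or above that upper limit; inactive means activation under 40%.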 The list shows a part of the results.

Target: Probable G-protein coupled receptor 32 (Homo sapiens) (UniProt O75388)
Sequence of UniProt O75388 (O75388 whole entry, looked up): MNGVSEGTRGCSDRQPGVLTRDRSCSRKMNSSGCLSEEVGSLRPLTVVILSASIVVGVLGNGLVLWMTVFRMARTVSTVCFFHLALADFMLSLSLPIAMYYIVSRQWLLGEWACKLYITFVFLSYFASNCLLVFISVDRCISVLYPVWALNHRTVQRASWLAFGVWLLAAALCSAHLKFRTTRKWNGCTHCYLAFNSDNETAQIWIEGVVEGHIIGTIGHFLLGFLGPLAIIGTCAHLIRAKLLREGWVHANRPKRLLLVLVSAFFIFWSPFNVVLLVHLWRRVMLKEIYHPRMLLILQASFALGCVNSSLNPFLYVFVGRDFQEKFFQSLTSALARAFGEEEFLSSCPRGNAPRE
Test: qHTS for Agonists of Human Resolvin D1 Receptor DRV1; further: 0% is about no effect
Settings: CHO-K1 GPR32 beta-arrestin PathHunter luminescence, 90 min; at 76.9 µM; hits give high values; zero percent set by DMSO-only wells
How it was run: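 GPR32 activation in stably transfected CHO-K1 cells, detected as beta-arrestin recruitment by enzyme-fragment complementation. Compound exposure: 90 min, 37 °C.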

activation, inactive:
COc1ccc(NC(=O)c2sc3nc4c(cc3c2N)CN(Cc2ccccc2)CC4)cc1OC 31%, CCc1cccc(NC(=O)C(CC)n2nc(C)c3sc4ccccc4c3c2=O)c1 (stereo not drawn) -6.29%, O=C(NCCCN1CCN(c2ccc(F)cc2)CC1)c1ccc2nc(CCc3ccccc3)oc2c1 -9.43%, COc1ccc(Nc2nc(-c3ccccc3F)nc3ccccc23)cc1OC -13.4%, CC(C)c1ccc(NC(=O)C(Cc2ccccc2)NS(=O)(=O)c2ccc3c(c2)oc(=O)n3C)cc1 (stereo not drawn) -1.51%, Cc1noc(-c2ccc(-c3noc(-c4ccc(C(F)(F)F)cc4)n3)cc2)n1 -5.95%, CCOc1ccc(CC(=O)NCc2ccc3c(c2)CCN3C(C)=O)cc1OCC -13.8%, CN(C)CCNC(=O)Cn1nc(N2CCN(c3ccccc3)CC2)ccc1=O -1.5%, Cc1ccc(C)c(S(=O)(=O)c2nnn3c2nc(N2CCCCC2)c2sccc23)c1 -29.9%, COc1ccc(NC(=O)CCc2nnc3n(CC(C)C)c(=O)c4ccccc4n23)cc1OC 10.7%, CC(C)(C)OC(=O)N1CCC(c2c(C(=O)N3CCN(c4ncccn4)CC3)cnn2-c2cccc(F)c2)CC1 -3.22%, COc1ccc(OC)c(NC(=O)Cn2cc(C(=O)c3ccc(Cl)cc3)c(=O)c3cc(OC)ccc32)c1 4.33%, CC(=O)Nc1nonc1-c1nnc(SCc2ccccc2Cl)n1C -6.26%, Cc1ccc(O)c(NC(=O)COCc2cc(-c3ccco3)on2)c1 -32.8%, COc1ccc(-c2cc(C(=O)Oc3cccc(C)c3C)c3ccccc3n2)cc1 -14%, COc1ccc(NC(=O)c2ccc3c(c2)CCN3S(=O)(=O)c2ccccc2)cc1 4.25%, COc1cc2c(cc1OC)n(CC(=O)c1ccc(C)cc1)c(=O)n1nc(CCn3nc(C)cc3C)nc21 -2.62%, CCc1ccc(NC(=O)c2sc3nc(C)cc(C)c3c2NC(=O)c2ccccc2OC)cc1 14.3%, CCN(Cc1ccccc1)C(=O)CCS(=O)(=O)c1ccc2c(c1)CCN2C(C)=O 8.67%, O=C(NC1CCCCC1)c1ccc2c(c1)N(Cc1cccc(Cl)c1)C(=O)c1ccccc1S2=O (stereo not drawn) -16.3%, COc1ccc(CN2CCN(S(=O)(=O)c3ccc(NC(C)=O)cc3)CC2)c(OC)c1OC -4.52%, CCc1ccc(-c2nc(CSCC(=O)NCc3ccc(C)cc3)c(C)o2)cc1 -26.2%, O=C(NCc1ccco1)c1ccc2c(c1)N(Cc1cccc(Cl)c1)C(=O)c1ccccc1S2=O (stereo not drawn) -19.4%
